# In all, about 120,000 compounds went through this assay and about 5,300 (4.4%) were called active. Inconclusive results, whose numbers are uncertain, are shown with a selection of clear calls. Calls follow the shape of the dose curve; as a rule, active = well fitted inhibition curve with a large enough effect; inconclusive = small, poorly fitted or top-dose-only effect; inactive = no such curve, though single readings can be large or run the other way. Potencies beside an inconclusive call are fits to weak or partial responses and may not hold up.
# Test: qHTS Primary assay for Inhibitors of Plasmodium falciparum Dd2 growth in vitro; also: nearly all actives have a fitted effect of over 65% in size;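 as to activity, negative = inhibition: plate controls were DMSO vehicle for no effect and reference drug for full effect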
# Conditions: P. falciparum Dd2 growth, SYBR Green, 72 h; activity, negative = inhibition: at 28.9 µM (top of the series) unless noted; series mostly up to 28.9 µM
# Summary of the method: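 Infected erythrocytes (Dd2, 0.3% parasitemia, 2.5% hematocrit final) are added to compound in RPMI-1640/Albumax II medium, grown 72 h at 37C in low oxygen, then lysed with saponin/Triton-X containing SYBR Green and read by fluorescence.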
# Potency is read from the fitted curve at half-maximal effect; tags tell the direction and shape of the fitted curve.
SMILES,Potency,"activity, negative = inhibition",outcome
CCNC(=O)N1CCOc2ccc(CN3CCOCC3)cc2C1,"inconclusive: 17.8 µM [inhibitor, single point]",,
N#Cc1ccc(S(=O)(=O)N2CCCCCCNC(=O)[C@@H]3CCCC[C@@H]32)cc1,,inactive: 6.39%,
Cc1ccc2oc(=O)n(CCNC(=O)Nc3ccccc3C)c2c1,"inconclusive: 17.8 µM [inhibitor, single point]",,
COc1ccc2c(c1)OCC(C(=O)NCCCN1CCCc3ccccc31)C2 (configuration not stated),"inconclusive: 15.8 µM [inhibitor, single point]",,
CC(C)C(=O)N1CCCCCNC(=O)[C@H]2C[C@H](C(=O)N3CCc4ccccc4C3)C[C@H]21,"inconclusive: 7.94 µM [inhibitor, single point]",,
CCN(C)C(C)C(=O)N1CCc2onc(-c3ccc(C(F)(F)F)cc3)c2C1 (configuration not stated),"inconclusive: 10 µM [inhibitor, partial curve, poor fit]",,
COCc1cn(C[C@H]2C[C@@H]3CCN2C[C@@H]3C(=O)N2CCCC2)nn1,,inactive: 16.1% [at 44.1 µM],
CCn1c(CNC(=O)C23CC4CC(CC(C4)C2)C3)nnc1SCC(=O)Nc1ccc(C)cc1,"inconclusive: 10 µM [inhibitor, partial curve]",,
CCOc1ccccc1NC(=O)CSc1nc2ccccc2nc1Cc1ccc(C)cc1,"inconclusive: 3.98 µM [inhibitor, partial curve, poor fit]",,
O=C(NC1CCCN(c2cc(-c3ccccc3)[nH]n2)C1)c1cccc2[nH]ccc12 (configuration not stated),"inconclusive: 11.2 µM [inhibitor, single point]",,
COCC(=O)N[C@H]1CCN2C(=O)N(c3ccc(OC(F)(F)F)cc3)C(=O)[C@@H]2C1,,,inactive [at 44.1 µM]
COc1ccc(-n2c(-c3ccccc3F)nc3c(cnn3-c3ccc(C)cc3)c2=O)cc1,"inconclusive: 12.6 µM [inhibitor, partial curve, poor fit]",,
CCOc1cc(Cn2c(-c3ccc(O)c(OCC)c3)nc3ccccc32)ccc1O,"inconclusive: 14.1 µM [inhibitor, single point]",,
COc1ccc(-c2cc(N3CCC(NC(=O)c4cccs4)CC3)n[nH]2)cc1,"inconclusive: 1.26 µM [inhibitor, full curve, poor fit]",,
CCCCC(=O)N1CC(=O)Nc2ccc(F)cc2C1c1ccc(F)cc1 (configuration not stated),active: 7.94 µM,,
NC(=O)N1CCCC1C(=O)N1CCC(c2cc(Cc3ccccc3)[nH]n2)CC1 (configuration not stated),,inactive: 4.81%,
COCc1cc(=O)n(CC(=O)Nc2cc(Cl)ccc2C)c(N2CCOCC2)n1,,inactive: 19.8%,
Cc1ccc(CNC2CN(C(=O)OC(C)(C)C)C2)cc1,"inconclusive: 3.16 µM [inhibitor, partial curve]",,
COc1cccc(CNC(=O)c2c(C)noc2-c2cccs2)c1,"inconclusive: 3.98 µM [inhibitor, single point]",,
CCCc1cnc2c(c1SCc1cccc(C)c1)c(=O)n(C)c(=O)n2C,active: 11.2 µM,,
O=C(CCC[C@H]1NC[C@@H]2C[C@H]1CN(Cc1ccccc1)C2)Nc1ccc(N2CCOCC2)cc1,"inconclusive: 17.8 µM [inhibitor, single point]",,
Cc1cnn(CCC(=O)N[C@@H]2CN(Cc3ccccn3)C[C@H]2CN(C)C)c1,,inactive: 29.1%,
O=C(NCc1cccc(Cl)c1)c1noc(-c2ccc(F)cc2)n1,,inactive: -12%,

SMILES,Potency,"activity, negative = inhibition",outcome
Cc1nc2sccn2c(=O)c1S(=O)(=O)Nc1ccc(N2CCN(C)CC2)cc1,,inactive: 40.8%,
Cn1c(CCNC(=O)C[C@H]2NC(=O)c3ccccc3NC2=O)nc2ccccc21,,inactive: -22.4%,
CN1CC2(CCN(C(=O)Cc3ccc(-n4cnnn4)cc3)CC2)CC1=O,,inactive: 9.1%,
COc1ccc(-c2nc(C(C)C)nc3c2CN([S+](=O)([O-])c2ccccc2)CC3)cc1,"inconclusive: 11.2 µM [inhibitor, single point]",,
Cn1cc(CC(=O)N2CCCc3ncc(C(=O)N4CCC(c5ccccc5)CC4)cc32)c2ccccc21,"inconclusive: 20 µM [inhibitor, single point]",,
Cc1cccc(NC(=O)c2cc3n(n2)CC(c2ccc(Cl)cc2)OC3)c1C (configuration not stated),,inactive: -14.9%,
CC(C)(C)C1CCc2nc(NC(=O)c3cccc(Cl)c3)sc2C1 (configuration not stated),"inconclusive: 3.98 µM [inhibitor, partial curve, poor fit]",,
COC(=O)c1ccc(OCC2c3cc(OC)c(OC)cc3CCN2C(=O)c2ccc(OC)cc2)cc1 (configuration not stated),active: 7.08 µM,,
NC(=O)Cn1ccc2cc(OCC3CCN(C(=O)C4CCCC4)CC3)cnc21,"inconclusive: 10 µM [inhibitor, partial curve, poor fit]",,
CCNC(=O)N1CCCN(S(C)(=O)=O)C(c2ccccc2)CC(=O)NCC1 (configuration not stated),,inactive: 5.45%,
CCCCSCCCNC(=O)C1CCN(Cc2nc(-c3ccc(CC)cc3)oc2C)CC1,"inconclusive: 17.8 µM [inhibitor, single point]",,
Cc1cccc(N2CCN(C(=O)c3sc4nc5n(c(=O)c4c3C)CCC5)CC2C)c1 (configuration not stated),"inconclusive: 14.1 µM [inhibitor, partial curve, poor fit]",,
Cc1ccc(S(N)(=O)=O)cc1C(=O)N1CCCn2nc(C(C)O)cc2C1 (configuration not stated),,inactive: -23.5%,
COc1ccc(-c2c(C#N)c(SCC(=O)Nc3ccc(C)c(C)c3)nc(C)c2C(=O)Nc2ccc(Cl)cc2)cc1,"inconclusive: 17.8 µM [inhibitor, single point]",,
Cc1cccc([S+](=O)([O-])N2CCC3(CC2)OCCN(CC2CC2)C3=O)c1,"inconclusive: 6.31 µM [inhibitor, partial curve]",,
COc1ccc(-c2noc(-c3nc(C)no3)n2)cc1F,"inconclusive: 11.2 µM [inhibitor, partial curve, poor fit]",,
Cn1ccc2c(C(=O)NCCC(N)=O)nc(-c3cccc(C(F)(F)F)c3)cc21,,inactive: 2.8% [at 44.1 µM],
Cc1cccc(OCCc2noc(C3CN(C(=O)CCc4ccccc4)C3)n2)c1,"inconclusive: 5.01 µM [inhibitor, partial curve, poor fit]",,
COc1ccccc1CNC(=O)c1ccc(-n2c(C)cc3c2CCCC3)cc1,active: 11.2 µM,,
Cc1nnc([C@H]2CCN(Cc3cnc4ccccc4c3)C2)o1,"inconclusive: 11.2 µM [inhibitor, partial curve, poor fit]",,
COc1ccc(Cl)cc1NC(=O)c1cnc(N2CCCCC2)c2ccccc12,"inconclusive: 17.8 µM [inhibitor, single point]",,
Cc1ccc(-c2ccc3nnc(CNC(=O)c4ccc(Cl)s4)n3n2)cc1,,,inactive
O=C(c1ccccc1F)N1c2nc(-c3ccco3)nn2C2(CCCCC2)[C@@H]2CCCC[C@@H]21,"inconclusive: 10 µM [inhibitor, single point]",,

SMILES,Potency,"activity, negative = inhibition",outcome
COc1ccc(CN2C(=O)[C@@H]3C[C@@H](CN3C3CCN(C)CC3)Oc3ccccc32)cc1,active: 10 µM,,
O=C(COc1ccccc1)N1CCOCC12CCN(Cc1ccccc1)CC2,"inconclusive: 14.1 µM [inhibitor, single point]",,
COc1ccccc1NC(=O)Cn1c(N2CCN(c3ccccc3)CC2)nc(C)cc1=O,"inconclusive: 17.8 µM [inhibitor, single point]",,
Cc1ccc(NC(=O)N2CCC(CCNC(=O)CC3CCCC3)CC2)cc1F,"inconclusive: 12.6 µM [inhibitor, single point]",,
CN1CC(=O)N(C2CCCNC2)Cc2c(NCC3CCCCCC3)ncnc21 (configuration not stated),,inactive: -8.29%,
O=C1NC2(CCCN(C(=O)c3cccnc3)C2)Oc2ccccc21 (configuration not stated),,inactive: 0.399% [at 44.1 µM],
O=C(c1ccc(-c2ncc3cnc(-c4cccc(F)c4)cn23)cc1)N1CCc2cccnc21,"inconclusive: 0.282 µM [inhibitor, full curve, poor fit]",,
CN(C)c1ccc(CN[C@H]2[C@H](O)[C@@H](N(C)CCc3ccccn3)[C@@H]3OC[C@H]2O3)cc1,"inconclusive: 0.562 µM [inhibitor, partial curve, poor fit]",,
Cc1cnc(C2CCC2)n1CC1CCN(C(=O)NC2CCCCC2)CC1,"inconclusive: 20 µM [inhibitor, single point]",,
c1ccc(CN2CCn3c(nnc3C3CCNCC3)C2)cc1,,inactive: 58.5% [at 44.1 µM],
CNC1CNC(=O)c2cc(-c3ccc(OC)cc3)nn21 (configuration not stated),"inconclusive: 0.708 µM [inhibitor, full curve]",,
O=C1NC2(CCCN(CC3CCCC3)C2)Oc2ccccc21 (configuration not stated),"inconclusive: 3.98 µM [inhibitor, full curve, poor fit]",,
O=C1NCc2ccccc2CC12CCCN(Cc1ccccn1)C2 (configuration not stated),"inconclusive: 8.91 µM [inhibitor, single point]",,
CC(=O)c1ccc(C(=O)N(Cc2cccnc2)c2nc3c(C)c(C)ccc3s2)cc1,"inconclusive: 10 µM [inhibitor, single point]",,
O=C1CN(C(=O)COc2ccc(Cl)cc2)C(c2ccc(F)cc2)c2cc(Cl)ccc2N1 (configuration not stated),active: 10 µM,,
NC(=O)Cc1c[nH]c2ncc(-c3cccc(O)c3)cc12,"inconclusive: 39.8 µM [inhibitor, single point]",,
Fc1ccc(C2Cn3nnc(-c4nc(-c5ccccc5)no4)c3CO2)cc1 (configuration not stated),"inconclusive: 20 µM [inhibitor, single point]",,
COc1ccc(C(=O)N2CCC(N3CC4CC(C3)[C@H]3CCCC(=O)N3C4)CC2)c(C)c1 (some centres not stated),,inactive: -6.84%,
CC(C)NC(=O)N1C2CCC1CN(c1ccc(C(F)(F)F)cc1)C2,"inconclusive: 10 µM [inhibitor, partial curve, poor fit]",,
CN(C)C(=O)CCC(=O)N1CCC(c2cc(Cc3ccccc3)[nH]n2)CC1,,inactive: -22.9%,
COc1ccc(-c2cc(N3CCCC(NC(=O)c4ccc(C)cc4)C3)n[nH]2)cc1 (configuration not stated),"inconclusive: 3.98 µM [inhibitor, single point]",,

# — PubChem BioAssay AID1347417 (National Center for Advancing Translational Sciences (NCATS), 2020)
